The full ranking holds about 110,000 compounds; the median of “z-score” is about -0.1, and the highest 2% start at about 2. This is one part of the list. Calls of active or inactive are those of the source.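 How the source made its calls: active means z-score in the third read window above 3 or below -3; inactive means the rest.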

The assay has as its target Metabotropic glutamate receptor 8 (Rattus norvegicus) (UniProt P70579). The experiment in a line: rat mGluR8 modulators via GIRK flux, primary screen, cell-based, thallium flux, HTS (AID 488969). The note with it: HEK293 rat mGluR8, GIRK (G protein-gated inwardly rectifying potassium channel) thallium flux, FluoZin2; at 10 µM; stronger effect = higher value; submaximal glutamate (EC20) added with thallium.
Chain of UniProt P70579 (P70579 whole entry, looked up): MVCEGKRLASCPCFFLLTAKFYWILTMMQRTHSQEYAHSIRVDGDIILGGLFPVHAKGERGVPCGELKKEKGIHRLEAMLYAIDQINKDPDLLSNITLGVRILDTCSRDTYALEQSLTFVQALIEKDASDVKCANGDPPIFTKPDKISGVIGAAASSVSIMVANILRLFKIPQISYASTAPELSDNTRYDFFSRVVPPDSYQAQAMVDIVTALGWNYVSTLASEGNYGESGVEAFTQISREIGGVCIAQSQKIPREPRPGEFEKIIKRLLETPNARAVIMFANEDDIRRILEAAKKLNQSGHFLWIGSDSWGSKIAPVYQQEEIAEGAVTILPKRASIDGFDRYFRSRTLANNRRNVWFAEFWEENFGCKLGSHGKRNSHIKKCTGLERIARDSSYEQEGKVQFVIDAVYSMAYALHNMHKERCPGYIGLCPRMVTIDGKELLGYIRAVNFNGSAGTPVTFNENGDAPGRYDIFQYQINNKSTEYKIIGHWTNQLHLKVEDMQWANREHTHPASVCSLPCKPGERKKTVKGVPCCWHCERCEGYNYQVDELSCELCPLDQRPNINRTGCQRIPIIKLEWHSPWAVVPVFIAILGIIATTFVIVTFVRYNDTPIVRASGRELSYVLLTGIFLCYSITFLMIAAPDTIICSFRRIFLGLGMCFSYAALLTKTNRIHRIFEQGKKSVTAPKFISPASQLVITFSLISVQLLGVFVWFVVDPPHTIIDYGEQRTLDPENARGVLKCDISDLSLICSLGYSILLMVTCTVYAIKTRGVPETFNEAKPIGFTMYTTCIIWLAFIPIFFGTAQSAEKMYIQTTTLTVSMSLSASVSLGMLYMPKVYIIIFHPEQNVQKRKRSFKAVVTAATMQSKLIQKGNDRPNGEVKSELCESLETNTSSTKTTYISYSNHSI
`Cc1ccc(S(=O)(=O)N2CCN(c3c([N+](=O)[O-])cc(C(F)(F)F)cc3[N+](=O)[O-])CC2)cc1` gave a z-score of 0.0211.
Under `Cn1c(C(C(=O)NCC2CCCO2)N(C(=O)Cn2nnc3ccccc32)C2CCCCC2)nc2ccccc21` (stereo not given) stands -0.0111; under `CCCn1ncc(OC)c(Cl)c1=O`, -0.121.
In the case of `COC(=O)c1cc(Br)c(=O)n(CCc2ccc(O)cc2)c1`, the z-score is -0.0309.
Take `Cc1cc(C)c(NC(=O)c2ccc(CN3CCc4ccccc4C3)cc2)c(C)c1`: the z-score is -0.111.
Consider `CC1(C)Cc2c(c(N3CCOCC3)nc3snc(Br)c23)CO1`, for which the z-score is -0.637.
Under `CCOc1cc(-c2noc(N)c2C(=O)OC)cc(OCC)c1OCC` stands -0.338.
`O=C(COc1ccccc1)Nc1ccc(CSc2ccccc2)cc1` displayed a z-score of -0.138.
For the compound `O=C(CN1C(=O)c2ccccc2C1=O)Nc1sc2c(c1C(=O)NCC1CCCO1)CCC2` (stereo not given), the z-score was active: 4.33.
Under `Cc1nn(Cc2ccccc2Cl)c(C)c1NC(=O)CSc1n[nH]c(C)c1[N+](=O)[O-]` stands -0.179.
`CCOC(=O)Cc1nnc(Nc2cccc(O)c2)c2ccccc12` returned a z-score of -0.674.
Turning to `Cc1cc([N+](=O)[O-])cc2c1NCC1CC=CC21` (stereo not given), the z-score is -1.92.
As for `c1ccc(-c2cc(-c3nc(-c4ccccn4)no3)c3ccccc3n2)cc1`, the figure is 0.0959; as for `O=P1(c2ccccc2)C=Cn2c1cc1c2CCCC1` (stereo not given), 0.549.
As for `Fc1ccc(NC(=S)N2CCCc3ccccc32)cc1`, the figure is -0.143; as for `O=C(CNC(=O)c1ccccc1)N/N=C/c1cc(Br)ccc1O`, -0.0334.
Under `CCOc1ccc(Cc2nc(N)nc(N)n2)cc1` stands 0.513; under `COCCNc1oc(-c2ccc(C)cc2)nc1C#N`, -0.528; under `CC1(C)CC(=O)c2cc(C(=O)N3CCCCC3)c(=O)n(-c3ccc(Cl)cc3)c2C1`, 0.117.
With `CCn1ncc(C2=NOC(C(=O)NCc3ccc(OC)cc3)C2)c1C` (stereo not given), the z-score stood at 0.792.
Take `CCOC(=O)c1c(/N=C/c2cc(C)ccc2O)sc2c1CCC2`: the z-score was -0.0611.
In the case of `CCOC(=O)C1CCCN(C(=O)c2cc(-c3ccc(C)cc3)on2)C1` (stereo not given), the z-score was -0.235.
Under `CC(NS(=O)(=O)c1ccccc1)C(N)=O` (stereo not given) stands -0.0342; under `CCOc1ccccc1NC(=O)N1C2CCCC1CC(NC(=O)C1CC1)C2` (stereo not given), -0.0112.
Regarding `CC(C)C(c1nnnn1Cc1ccco1)N1CCN(c2cccc(Cl)c2)CC1` (stereo not given), the z-score is -1.14.
Under `CC(=O)N1CCN(C(=O)Cn2c(=O)oc3ccccc32)CC1` stands -0.443.
Consider `CCN1CCN(C(=S)Nc2ccccc2Cl)CC1`, for which the z-score is -0.199.
Consider `CCCn1c(SCC(=O)N2CCc3ccccc3C2)nc2c1c(=O)n(C)c(=O)n2C`, for which the z-score came out at 0.622.
Consider `O=C1CC(C(=O)Nc2ccccc2)N=C(N2CCOCC2)N1` (stereo not given), for which the z-score is -0.126.
As for `Cc1cc(NC(=O)CCc2ccccc2)c([N+](=O)[O-])cc1C`, the figure is 1.8; as for `COc1ccccc1C1(O)CC2CCC(C1)N2S(=O)(=O)c1ccc(C(C)=O)cc1` (stereo not given), 0.222.
As for `CC(=O)Nc1ccc(S(=O)(=O)N2CCN(C34CC5CC(CC(C5)C3)C4)CC2)cc1`, the figure is 0.892; as for `CC1CN(Cc2cc(=O)n3ccsc3n2)CC(C)O1` (stereo not given), 0.53; as for `O=C(CSc1nnc(Cc2ccccc2)n1Cc1ccccc1)NCc1ccco1`, -0.453.
The compound `CS(=O)(=O)N1CCN(c2ccccc2NC(=O)CSc2ccc(Cl)cc2)CC1` displayed a z-score of -0.277.
As for `Cc1ccc(-c2cc(C(=O)O)c3sc(N4CCCCC4)nc3n2)cc1`, the figure is -0.203; as for `CC1=C(C#N)C(NC(=O)C2CC2)(C(F)(F)F)C(=O)N1` (stereo not given), -0.127.
As for `CC12CCC(=O)N1c1c(sc3nc(N4CCOCC4)c4c(c13)CCCC4)C(=O)N2` (stereo not given), the figure is -1.63; as for `O=[N+]([O-])c1ccc(NC(=S)NCCc2ccc(F)cc2)cc1`, 1.65; as for `COc1cccc(N(C(=O)C2COc3ccccc3O2)C(C(=O)NC2CCCCC2)c2ccc(O)cc2)c1` (stereo not given), -0.109.
`O=C(CN(c1ccccc1F)S(=O)(=O)c1ccccc1)NC1CCCCCC1` showed a z-score of -0.205.
The compound `CCCCOc1ccc(/C=N/NC(=S)Nc2cccc(C)c2C)cc1` had a z-score of 0.714.
As for `COc1cc(C(=O)NCc2nnc(SCC(=O)Nc3nc4ccc(C)cc4s3)o2)cc(OC)c1OC`, the figure is -0.24; as for `O=C(c1ccccc1)c1ccc(OCCCCN2CCCCC2)cc1`, -0.455; as for `O=C(Cc1ccccc1)Nc1ccc(C(=O)O)cc1`, -0.0673.
`CC(=O)N1N=C(c2cccc(Cl)c2)OC1c1cccc([N+](=O)[O-])c1` (stereo not given) gave a z-score of -0.567.
With `CC1(c2ccccc2)NC(=O)N(CC(=O)NC(=O)NCc2ccco2)C1=O` (stereo not given), the z-score was -0.363.
Under `CN(C)c1nc(-c2ccccc2)cc(C(F)(F)F)c1C#N` stands -0.292; under `Clc1ccc(N2CCN(c3cnc4ccccc4n3)CC2)cc1`, -0.483; under `Cc1cc(NS(=O)(=O)c2ccc(NC(=S)NC(=O)c3ccc(F)cc3)cc2)no1`, -0.0103.
As for `CC1(C)CC(O)CC(C)(C)N1CC(O)COCCOc1ccc(Br)cc1` (stereo not given), the figure is -0.471; as for `Cc1ccc(NC(=O)c2ccnc(C(C)(C)C)c2)cc1`, -2.95; as for `O=C(NNc1nc(-c2ccccc2)cs1)c1ccccc1`, -1.53.
Under `CCCCOC(=O)Nc1nnc(-c2ccccc2OC)s1` stands -0.938; under `O=C(CN1CCCC1)Nc1ccc(Oc2ccc(NC(=O)CN3CCCC3)cc2)cc1`, 2.7.
`CC1Cn2c(nnc2C23CC4CC(CC(C4)C2)C3)S1` (stereo not given) returned a z-score of -0.17.
On to `COC(=O)Nc1ccc(S(=O)(=O)N2CCC(C)CC2)cc1`, for which the z-score is -0.128.
For the compound `O=C1CN(C(=O)c2ccco2)C(c2ccccc2)c2cc(Cl)ccc2N1` (stereo not given), the z-score is -0.465.
Under `CC1=CC(C)(C)n2c(O)c(N=NC(N)=S)c3cc(C)cc1c32` stands 1.04.
Consider `O=C1CCN(S(=O)(=O)c2ccc(Cl)cc2)N1`, for which the z-score was 1.08.
Under `O=C(c1ccco1)N1CCN(c2ncnc3c(-c4ccccc4)nsc23)CC1` stands -0.259; under `O=C(NNS(=O)(=O)c1ccc([N+](=O)[O-])cc1)c1cnn(-c2ccccc2)c1-n1cccc1`, 0.239.
Under `C#CC(C)(C)NC(=O)CSc1nc2c(c(=O)n(C)c(=O)n2C)n1CCCC` stands -0.341; under `CCCN1C2CCCC1CC(NC(=O)Nc1cccc(C(C)=O)c1)C2` (stereo not given), 0.188.
For `O=C(Nc1cccnc1)C1CC(c2ccccc2O)=NO1` (stereo not given), the z-score is -0.19.
As to `OCCSc1nc(-c2ccccc2)nc2c1CCC2`, the z-score was -0.107.
As for `C=C(C)CNC(=S)N/N=C(\C)c1ccc(-n2ccnc2)cc1`, the figure is -0.342; as for `Cc1ccc(CNC(=O)C2CCCN(S(=O)(=O)c3c(C)n[nH]c3C)C2)cc1` (stereo not given), 0.211; as for `CC(=O)Nc1ccc(S(=O)(=O)NCc2ccc3c(c2)cc(C)n3C)cc1`, 0.208.
`Cc1cc(C)c(-c2csc(NC(=O)C3=NN(c4ccccc4)C(=O)CC3)n2)c(C)c1` had a z-score of -0.758.
`Cc1cccc(N=C2Sc3nc4c(C)c(C)ccc4cc3CN2CCN2CCOCC2)c1` registered a z-score of 0.611.
In turn, `CCc1ccccc1NC(=O)/C(C#N)=C\c1ccc(Sc2ccccc2)o1` registered a z-score of -0.252.
Under `COc1ccccc1NS(=O)(=O)c1cc(NC(=O)Nc2ccccc2)ccc1N1CCCCC1` stands -0.071.
Under `CCn1c(SCC(=O)c2ccc(CNC(C)=O)o2)nnc1-c1cccs1` stands -0.715; under `O=C(COc1ccccc1)NNC(=S)NC(=O)c1ccc(Cl)cc1Cl`, active: 5.19.
As for `COc1ccc(CCN2C(=O)CC(Nc3ccc(N4CCOCC4)cc3)C2=O)cc1OC` (stereo not given), the figure is -0.168.
`CCCCN1C(=O)/C(=C/C=C2\N(C)c3ccccc3C2(C)C)SC1=S`: the z-score turned out to be 0.217.
`CC(=O)Nc1ccc(N/C=C/C(=O)C(C)(C)C)cc1`: the z-score was determined as 0.017.
The compound `CC(C)CNC(=O)NC1C(NC(=O)NCC(C)C)N(C)C(=O)N1C` (stereo not given) gave a z-score of 0.0762.
As for `CCOC(=O)c1[nH]c(C)c(C(=O)Nc2ccc(F)cc2)c1C`, the figure is -0.184; as for `O=C(Nc1sc2c(c1C(=O)NC1CC1)CCCCCC2)c1ccco1`, -0.371; as for `CCCNC(=O)Cc1c(O)c2ccccc2[nH]c1=O`, 0.0931.
Compound `O=C(C/C=N/OCc1ccc(Cl)cc1Cl)c1ccccc1` showed a z-score of -0.222.
As for `COc1ccc([C@H]2[C@H](C(=O)OC(C)(C)C)N3N=Cc4ccccc4C3C23C(=O)c2ccccc2C3=O)c(OC)c1` (stereo not given in full), the figure is -0.179; as for `CNC(=O)c1ccc(-c2ccc(F)cc2)s1`, -0.24.
With `S=C(Nc1ccc(Cl)cc1)NC1CC2CCCC(C1)N2C1CCCC1` (stereo not given), the z-score was 0.0783.
The compound `C=CCSc1ncnc2sc(C)c(C)c12` showed a z-score of 0.751.
As for `O=C(CSc1ncccn1)NN=C1CCCCCCC1`, the figure is 0.0617.
Compound `COc1cc(-c2nc3cnccn3c2Nc2ccc(C(C)C)cc2)ccc1O` gave a z-score of -0.148.
As for `CSc1ccc(NC(=O)NCCN2CCc3ccccc3C2)cc1`, the figure is -0.413; as for `CNC(=O)N(C1=NCC(C)S1)c1ccc(F)cc1F` (stereo not given), -0.867.
As for `COc1ccc(OCc2nnc3n2N=C(c2ccc(OC)cc2)CS3)cc1`, the z-score was -0.252.
With `Cc1cc(C)nc(-n2nc(C)c(Br)c2Nc2ccc(Br)cc2)n1`, the z-score was determined as 0.303.
`CC(C)N(C(=O)COC(=O)c1cc(Cl)cc(Cl)c1N)C(C)C`: the z-score is -0.0515.
As to `Cc1cc(C(=O)CSCCCn2c(=O)[nH]c3ccccc32)c(C)n1C`, the z-score was 0.0855.
Regarding `N#CNC(N)=Nc1cccc(Cl)c1`, the z-score was -0.122.
Under `CCOc1ccc(NS(=O)(=O)c2cc(Cl)ccc2OC)cc1` stands -0.0904; under `CC(/C=N\NC(=O)CN1CCN(Cc2ccccc2)CC1)=C\c1ccco1`, -0.153; under `Cn1cccc1C(=O)N1CCN(c2cccc(C(F)(F)F)c2)CC1`, -0.386.
`COc1ccc(NC(=O)c2ccco2)cc1NC(=O)c1cccs1`: the z-score was -0.36.
Under `CCCNS(=O)(=O)c1ccc(OC)c(Cl)c1Cl` stands -0.104; under `Cc1ccc(Oc2ccc(Cl)cc2NC(=O)c2ccc(F)cc2F)cc1`, -0.0415.
As for `Clc1ccccc1CN(Cc1ccccc1)c1ncnc2nc[nH]c12`, the z-score worked out at 0.535.
As for `Cc1ccc2nc(Cc3ccc(N)cc3)[nH]c2c1`, the figure is -0.202.
In turn, `COc1cc(C)nc(OCCNS(=O)(=O)c2cc(C)ccc2C)n1` returned a z-score of 0.217.
As for `COc1cc(Br)cc(/C=N/NC(=O)Cc2ccc(C(F)(F)F)cc2[N+](=O)[O-])c1O`, the figure is -0.211.
As for `O=C(NCCCNC(=O)c1ccco1)c1ccco1`, the z-score is -1.09.
Under `Cc1ccc(S(=O)(=O)C(C#N)c2nc3ccccc3nc2N2CC(C)OC(C)C2)cc1C` (stereo not given) stands -0.185.
As for `O=C(CS(=O)(=O)c1cn(Cc2ccc(Cl)cc2)c2ccccc12)N1CCCCC1`, the z-score is -0.155.
As for `Cn1c(=O)oc2cc(S(=O)(=O)NC(Cc3ccccc3)C(=O)N3CCCCC3)ccc21` (stereo not given), the figure is -0.355.
